# Assay results from publication PMC6602471.
# This is one part of the list. At the low end of the ranking, values are background and their order means little.
# Target: T1, ETS1 (UniProt P14921)
# T1 sequence: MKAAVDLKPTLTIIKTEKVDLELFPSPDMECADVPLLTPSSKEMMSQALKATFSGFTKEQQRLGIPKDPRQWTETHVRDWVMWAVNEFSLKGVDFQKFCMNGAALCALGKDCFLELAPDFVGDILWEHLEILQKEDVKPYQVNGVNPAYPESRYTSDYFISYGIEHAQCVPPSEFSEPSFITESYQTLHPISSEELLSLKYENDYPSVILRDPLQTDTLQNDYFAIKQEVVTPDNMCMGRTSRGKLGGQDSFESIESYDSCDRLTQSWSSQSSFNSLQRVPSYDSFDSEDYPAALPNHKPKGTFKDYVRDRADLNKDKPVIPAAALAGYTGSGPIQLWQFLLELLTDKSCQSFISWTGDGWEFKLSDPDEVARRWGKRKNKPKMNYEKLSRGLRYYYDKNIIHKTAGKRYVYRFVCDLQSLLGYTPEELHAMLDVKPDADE
# Test: custom PBM
# Details: custom protein-binding microarray; buffer, salt, pH and temperature not stated; high values mean tight binding; double strand, one strand shown
row,Sequence,binding signal (log fluorescence intensity)
1,CACAATTTTTACAGTAATGTAGCACGCGTAACCCCTGTCTTGATTCGCTTGACGCTGCTG,8.28
2,TCCGGCTACCAGCTCCACCCACTTCCGGCCTTGTAGGTCTTGATTCGCTTGACGCTGCTG,13.1
3,GGAAACAGGCCCAGGGTAACACCGGAAGTGGGCTTAGTCTTGATTCGCTTGACGCTGCTG,11.8
4,GGAAAATGGCCCAGGGTAACACCGGAAGTGGGCTTAGTCTTGATTCGCTTGACGCTGCTG,12
5,CAGCATAGGACTTATTCCCTGAAGCAATTGATAACCGTCTTGATTCGCTTGACGCTGCTG,8.35
6,TGTCGGGTAAGGAAATGTAGATCACGTGAATGAAAAGTCTTGATTCGCTTGACGCTGCTG,8.48
7,CACAATTTTTATAGTAATGTAGCACGCGTAACTCCTGTCTTGATTCGCTTGACGCTGCTG,8.41
8,CTGGGACCTGACCCAACTCTGCCACGTGGGTCGTTTGTCTTGATTCGCTTGACGCTGCTG,8.18
9,GATTAATTTCTGCCCTTATTCGCAGGTGCCATAACAGTCTTGATTCGCTTGACGCTGCTG,8.22
10,TGTCGGGTAAGGGAATGTAGATCACATGAATGAAAAGTCTTGATTCGCTTGACGCTGCTG,8.27
11,CTGGGACTTGACCCAACTCTGCCACGTGGGTCGCTTGTCTTGATTCGCTTGACGCTGCTG,8.36
12,TGTCGGGTAAGGGAATGTATATCACGTGAATGAAAAGTCTTGATTCGCTTGACGCTGCTG,8.29
13,CACAATTTTTACAGTAATGTAGCACGCGTAACTGCTGTCTTGATTCGCTTGACGCTGCTG,8.17
14,GATTAATTTCTGCCCTTAGTCGCACGTGCCATAACAGTCTTGATTCGCTTGACGCTGCTG,8.23
15,CACAATTTTTACAGTAATGTAGCACGCGTAACTACTGTCTTGATTCGCTTGACGCTGCTG,8.22
16,TGTCGGGTAAGGGAATGTAGATCACGTGAATGAACAGTCTTGATTCGCTTGACGCTGCTG,8.22
17,GCTGCTGCGGTGCATAGCCCACCGGATGTGACCCCGGTCTTGATTCGCTTGACGCTGCTG,10.1
18,CGGAAGTGTCGTAAACGTTGGATATCCGGTTCTTCTGTCTTGATTCGCTTGACGCTGCTG,11.5
19,GATTAATTTCTGCCCTTATTCGCACGGGCCATAACAGTCTTGATTCGCTTGACGCTGCTG,8.33
20,GCTGCTGCGGTGCCTACCCCACCGGATGTGACCCCGGTCTTGATTCGCTTGACGCTGCTG,10
21,CAGCATATGACTTCTTCCCTGAAGCAATTGATAACCGTCTTGATTCGCTTGACGCTGCTG,8.31

row,Sequence,binding signal (log fluorescence intensity)
1,TACTGACTTATATATGCTAATGCACATGAATAGACCGTCTTGATTCGCTTGACGCTGCTG,8.2
2,GCAGCTGCGGTGCATACCCCACCGGATGTGACCCCGGTCTTGATTCGCTTGACGCTGCTG,10.3
3,TGTCGGGTAAGGGAATGTAGATTACGTGAATGAAAAGTCTTGATTCGCTTGACGCTGCTG,8.2
4,GATTAATTTCTGCCCTTATTCGCATGTGCCATAACAGTCTTGATTCGCTTGACGCTGCTG,8.26
5,CTGGGACTTGACCTAACTCTGCCACGTGGGTCGTTTGTCTTGATTCGCTTGACGCTGCTG,8.09
6,CGGAAGTGTTGTAAACGTCGGATATCCGGTTCTTCTGTCTTGATTCGCTTGACGCTGCTG,11.6
7,CCTGCTGCGGTGCATACCCCACCGGATGTGACCCCGGTCTTGATTCGCTTGACGCTGCTG,10.4
8,GGAAAAAGGCCTAGGGTAACACCGGAAGTGGGCTTAGTCTTGATTCGCTTGACGCTGCTG,12.1
9,TGTCGGGTAAGGGAATGTAGATCACGTGAATGAAAGGTCTTGATTCGCTTGACGCTGCTG,8.27
10,GTGTATAGGATCCCATCGAACACACGTGTTAAAATGGTCTTGATTCGCTTGACGCTGCTG,8.36
11,GAGCATAGGACTTCTTCCCTGAAGCAATTGATAACCGTCTTGATTCGCTTGACGCTGCTG,8.32
12,TCCGGCTACCAGCTCCACCGACTTCAGGCCTTGTAGGTCTTGATTCGCTTGACGCTGCTG,8.07
13,GATTCATTTCTGCCCTTATTCGCACGTGCCATAACAGTCTTGATTCGCTTGACGCTGCTG,8.26
14,GTTTATAGGATCCCATCCAACACACGTGTTAAAATGGTCTTGATTCGCTTGACGCTGCTG,8.21
15,GTGCATAGGATCCCATCCAACACACGTGTTAAAATGGTCTTGATTCGCTTGACGCTGCTG,8.28
16,CACAATTTTTGCAGTAATGTAGCACGCGTAACTCCTGTCTTGATTCGCTTGACGCTGCTG,8.13
17,GATTAATTTCTGCCCATATTCGCACGTGCCATAACAGTCTTGATTCGCTTGACGCTGCTG,8.2
18,GCTGCTGCGGTGCATACCCCACCGGCTGTGACCCCGGTCTTGATTCGCTTGACGCTGCTG,8.16
19,TGTCGGGTAAGGGAATCTAGATCACGTGAATGAAAAGTCTTGATTCGCTTGACGCTGCTG,8.29
20,TCCGGCTACCAGCACCACCCACTTCAGGCCTTGTAGGTCTTGATTCGCTTGACGCTGCTG,8.29
21,TACTGACTTATATATGCGAATTCACATGAATAGACCGTCTTGATTCGCTTGACGCTGCTG,8.31

row,Sequence,binding signal (log fluorescence intensity)
1,TATTGACTTATATATGCGAATGCACATGAATAGACCGTCTTGATTCGCTTGACGCTGCTG,8.12
2,CTGGGACTTGACCCAACTCTGCCACGTGGGTCCTTTGTCTTGATTCGCTTGACGCTGCTG,8
3,CAGCATAGGACTGCTTCCCTGAAGCAATTGATAACCGTCTTGATTCGCTTGACGCTGCTG,8.31
4,TACTAACTTATATATGCGAATGCACATGAATAGACCGTCTTGATTCGCTTGACGCTGCTG,8.39
5,CAAAGGGAAGACGGTTGTGGTAGTTCCGGGTATTAAGTCTTGATTCGCTTGACGCTGCTG,8.6
6,GATTAATTTCTGCCCTTATTCGCCCGTGCCATAACAGTCTTGATTCGCTTGACGCTGCTG,8.24
7,GCTGCTGCGGTGCATACCCCACCGGATGTGACCCCAGTCTTGATTCGCTTGACGCTGCTG,10.1
8,TGTCGGGTAAGGGAATGTAGATCACGTGATTGAAAAGTCTTGATTCGCTTGACGCTGCTG,8.38
9,GATTAATTTCTGCCCTTATTCGCACGTGGCATAACAGTCTTGATTCGCTTGACGCTGCTG,8.25
10,GCTGCTGCGGTGCATACCCCACCGGATGTCACCCCGGTCTTGATTCGCTTGACGCTGCTG,9.82
11,TACTGACTTATATATGCGAATGCACTTGAATAGACCGTCTTGATTCGCTTGACGCTGCTG,8.34
12,GGCAAAAGGCCCAGGGTAACACCGGAAGTGGGCTTAGTCTTGATTCGCTTGACGCTGCTG,11.7
13,CGGAAGAGTCGTAAACGTCGGATATCCGGTTCTTCTGTCTTGATTCGCTTGACGCTGCTG,11.8
14,TAAAGGGAAGACGGTTGTGGTAGGTCCGGGTATTAAGTCTTGATTCGCTTGACGCTGCTG,8.3
15,TGTCGGGTAAGCGAATGTAGATCACGTGAATGAAAAGTCTTGATTCGCTTGACGCTGCTG,8.18
16,GCTGCTGCGGTCCATACCCCACCGGATGTGACCCCGGTCTTGATTCGCTTGACGCTGCTG,10.2
17,CAGCATAGGACTTCTTCCGTGAAGCAATTGATAACCGTCTTGATTCGCTTGACGCTGCTG,8.66
18,CACAATTTTAACAGTAATGTAGCACGCGTAACTCCTGTCTTGATTCGCTTGACGCTGCTG,8.24
19,CACAATGTTTACAGTAATGTAGCACGCGTAACTCCTGTCTTGATTCGCTTGACGCTGCTG,8.47
20,CTGGGACTTGACCCAACTCAGCCACGTGGGTCGTTTGTCTTGATTCGCTTGACGCTGCTG,8.27
21,AACAATTTTTACAGTAATGTAGCACGCGTAACTCCTGTCTTGATTCGCTTGACGCTGCTG,8.25

row,Sequence,binding signal (log fluorescence intensity)
1,GATTAATTGCTGCCCTTATTCGCACGTGCCATAACAGTCTTGATTCGCTTGACGCTGCTG,8.19
2,TCCGGCTACCAGCTCCACCCACTTCAGGCCTTGTACGTCTTGATTCGCTTGACGCTGCTG,8.09
3,TGTCGGATAAGGGAATGTAGATCACGTGAATGAAAAGTCTTGATTCGCTTGACGCTGCTG,8.17
4,CTGGGACTTGACACAACTCTGCCACGTGGGTCGTTTGTCTTGATTCGCTTGACGCTGCTG,8.38
5,GGAAAAAGGCCCAGGGTAAGACCGGAAGTGGGCTTAGTCTTGATTCGCTTGACGCTGCTG,12
6,TGTCGGGTGAGGGAATGTAGATCACGTGAATGAAAAGTCTTGATTCGCTTGACGCTGCTG,8.08
7,GGAAAAAGGCCCAGGGTAACACCGGAAGTGGGCTTTGTCTTGATTCGCTTGACGCTGCTG,12.1
8,TGTCGGGTAAGGGAATGTAGATCAGGTGAATGAAAAGTCTTGATTCGCTTGACGCTGCTG,8.18
9,CGGAAGTGTCGTAAACGTCCGATATCCGGTTCTTCTGTCTTGATTCGCTTGACGCTGCTG,12.2
10,CAGCATAGGACTTCTTTCCTGAAGCAATTGATAACCGTCTTGATTCGCTTGACGCTGCTG,8.34
11,GCTGCTGCGGTGCATACCCCACCGGATGTGGCCCCGGTCTTGATTCGCTTGACGCTGCTG,10.3
12,GTGTATAGGATCCCATCCAACACACGTGTAAAAATGGTCTTGATTCGCTTGACGCTGCTG,8.14
13,TCCGGCTACCAGCTCCACCCACTTCAGGCCTCGTAGGTCTTGATTCGCTTGACGCTGCTG,8.2
14,GTGTATAGGCTCCCATCCAACACACGTGTTAAAATGGTCTTGATTCGCTTGACGCTGCTG,8.22
15,TACTGACTTATATGTGCGAATGCACATGAATAGACCGTCTTGATTCGCTTGACGCTGCTG,8.39
16,TGTCGGGTAAGGGAATGTAGAACACGTGAATGAAAAGTCTTGATTCGCTTGACGCTGCTG,8.46
17,CGGAAGTGTCGTAAACGTCGGATATCCGCTTCTTCTGTCTTGATTCGCTTGACGCTGCTG,10.1
18,GATTAATTTCTGCCCTTATTCGCACGTGCCATAACGGTCTTGATTCGCTTGACGCTGCTG,8.18
